# Experimental data as given in PubChem BioAssay AID686978 (National Center for Advancing Translational Sciences (NCATS), 2013).
# Where “and” joins values, the source holds several entries; their conditions need not be identical. Identical values can stand only once. The campaign covered roughly 420,000 compounds. About 64,000 (15%) were called active. This list was built around the results that the source calls inconclusive (neither active nor inactive); the mix of calls is not that of the screen. Calls follow the shape of the dose curve; as a rule, active = well fitted inhibition curve with a large enough effect; inconclusive = small, poorly fitted or top-dose-only effect; inactive = flat fitted curve, though single readings scatter. Potencies of inconclusive entries are doubtful fits and often do not repeat.
# Experiment: qHTS for Inhibitors of human tyrosyl-DNA phosphodiesterase 1 (TDP1): qHTS in cells in absence of CPT; also: nearly all actives have a fitted effect of over 55% in size
# Conditions: DT40 Tdp1-/- hTDP1 cells, no CPT, ATP luminescence, 48 h; activity change, negative = growth inhibition: at 46.2 µM (top of the series) unless noted
# Summary of the method: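 Stably hTDP1-transfected Tdp1-null chicken DT40 cells were treated with library compounds minus camptothecin and grown for at least 48 hr at 37 °C, after which cellular ATP was quantified by luminescence.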
# % is scaled to controls: 0 for no effect and ±100 for the full control effect; potency is read from the fitted curve at half-maximal effect; tags tell the direction and shape of the fitted curve.
SMILES,Potency,"activity change, negative = growth inhibition"
Cc1ccc(-n2c(C)cc(C(=O)COc3cccnc3[N+](=O)[O-])c2C)cc1,active: 10.3 µM,
CCc1cccc2c(C(=O)COC(=O)c3ccc(O)cc3)c[nH]c12,"inconclusive: 23.1 µM [inhibitor, single point]",
CCCCn1c(SCC(=O)c2ccc(OC)c(OC)c2)nc2cc(S(N)(=O)=O)ccc21,"inconclusive: 0.58 µM [inhibitor, full curve, poor fit]",
COc1ccc(NC(=O)c2cc(-c3cccnc3)nc3c(C)c(C)ccc23)c(OC)c1,"inconclusive: 16.4 µM [inhibitor, partial curve, poor fit]",
Cc1cc(C)c2c(=O)n(CC(=O)Nc3ccc(Br)c(C)c3)sc2n1,active: 9.2 µM,
S=C(NCCCN1CCOCC1)NCCCN1CCOCC1,,inactive: 0.252%
CC(C)c1ccc(Nc2cc(C(=O)NCCc3ccccc3)c3ccccc3n2)cc1,"inconclusive: 23.1 µM [inhibitor, single point]",
Cc1csc(N(C)C(=O)CSc2nnc(COc3cccc4ccccc34)o2)n1,active: 5.8 µM,
Cc1ccc(-c2onc(C)c2C)cc1S(=O)(=O)N1CC(C)Oc2ccccc21 (stereo not given),"inconclusive: 29.1 µM [inhibitor, single point]",
O=C(O)CCCn1cc(NC(=O)c2ccc(Br)o2)cn1,,inactive: -18.5%
O=C(CSc1nc2scc(-c3ccccc3)c2c(=O)[nH]1)Nc1ccccc1,"inconclusive: 6.51 µM [inhibitor, partial curve, poor fit]",
O=C(NC1CCCC1)C(c1cccnc1)N(C(=O)c1csnn1)c1ccccc1Cl (stereo not given),,inactive: -6.73%
COc1ccc(Nc2oc(-c3ccc(COc4ccc(OC)cc4)o3)nc2C#N)cc1,,inactive: -22.8%
Cc1cc(=O)c2ccccc2n1CC(=O)NCc1ccccc1,"inconclusive: 20.6 µM [inhibitor, single point]",
Cc1ccc(C)c(NC(=O)C2(C)CCN2C(C)C)c1 (stereo not given),"inconclusive: 23.1 µM [inhibitor, single point]",
O=C(NC1CCCC1)C(c1ccc(F)cc1)N(Cc1ccc(Cl)cc1)C(=O)CCl (stereo not given),active: 4.11 µM,
Cc1cc2oc(C(=O)N(Cc3ccccc3)C3CCS(=O)(=O)C3)c(C)c2cc1C (stereo not given),active: 16.4 µM,
Cc1cccc(N2C(S)=C(C#N)C(=O)NC2c2ccco2)c1 (stereo not given),"inconclusive: 18.4 µM [inhibitor, partial curve]",
COc1cccc(CC2(CO)CCCN(CC3=Cc4cc(OC)ccc4OC3)C2)c1 (stereo not given),"inconclusive: 20.6 µM [inhibitor, single point]",
CCC(C)NC(=O)C1CCN(C(=O)c2cc3sccc3n2Cc2ccc(Cl)cc2)CC1 (stereo not given),active: 2.06 µM,
CCc1ccccc1N1CC(c2nc3ccccc3n2CC(C)C)CC1=O (stereo not given),active: 20.6 µM,
Cc1oc(-c2ccccc2Cl)nc1CS(=O)(=O)CC(=O)NC1CCCC1,"inconclusive: 29.1 µM [inhibitor, single point]",
c1ccc(Nc2cc(-c3ccoc3)ncn2)cc1,,inactive: -4.84%
CC(C)(C)C1CCc2nc(NC(=O)COc3ccc(F)cc3)sc2C1 (stereo not given),active: 20.6 µM,

SMILES,Potency,"activity change, negative = growth inhibition"
CN(Cc1ccccc1)C(=O)c1ccc(NC(=O)Cc2ccc(NC(=O)C3CCN(C(=O)c4ccccc4)CC3)cc2)cc1,"inconclusive: 20.6 µM [inhibitor, single point]",
Cc1c(C)c(C)c(S(=O)(=O)n2[nH]c(=O)c(CCO)c2C)c(C)c1C,"inconclusive: 32.6 µM [inhibitor, single point]",
Cc1ccc(/C(N)=N/OC(=O)c2ccco2)cc1,,inactive: -18.6%
O=c1nc(-c2ccccc2)c2cc(Cl)ccc2[nH]1,active: 1.3 µM,
O=C(COc1ccc(S(=O)(=O)N2CCCC2)cc1)NCCC1=CCCCC1,"inconclusive: 29.1 µM [inhibitor, single point]",
N#Cc1ccccc1OCC(=O)NC1CCCCCC1,,inconclusive: -21.2% [inhibitor]
CCC(=O)Nc1ccccc1-c1nc2ccccc2n(C(CC)C(=O)Nc2cccc(C(C)=O)c2)c1=O (stereo not given),"inconclusive: 16.4 µM [inhibitor, single point]",
Cc1oc(-c2ccc(C(=O)Nc3ccc(F)cc3F)cc2)nc1COc1ccccc1,,inactive: -28.3%
CCCCCc1c(C)nc(Nc2nc(C)c3cc(OC)ccc3n2)[nH]c1=O,active: 16.4 µM,
Cc1c(NC(=O)C(C)Oc2cccc(Cl)c2)c(=O)n(-c2ccccc2)n1C (stereo not given),,inactive: -5.95%
CC(C)(C)c1ccc(OCCSc2nc(-c3cccs3)nc3cc(=O)[nH]n23)cc1,"inconclusive: 29.1 µM [inhibitor, single point]",
CC(=O)Nc1ccc(-n2cc3c(c2-c2ccc(C)cc2)c(=O)n(C)c(=O)n3C)cc1,"inconclusive: 29.1 µM [inhibitor, single point]",
C[C@@H](OC(=O)c1[nH]cnc1C(=O)NCc1ccc(CNC(=O)OC(C)(C)C)cc1)c1ccccc1,active: 16.4 µM,
CCc1nc2ccc(C(=O)Nc3ccc(OC)c(OC)c3)cn2c1N(CC)CCOC,"inconclusive: 29.1 µM [inhibitor, single point]",
CC(C)OC(=O)c1c(N)n(CCCN2CCOCC2)c2nc3ccccc3nc12,,inactive: -6.76%
O=C(CSc1nc2ccccc2c(=O)n1Cc1ccco1)N1CCCCCC1,"inconclusive: 29.1 µM [inhibitor, single point]",
CNc1c(N)c(=O)oc2ccccc12,,inactive: -15.4%
C=CCN(CC(O)c1cccc([N+](=O)[O-])c1)C(C)CCc1ccccc1 (stereo not given),active: 20.6 µM,
Cc1ccc(S(=O)(=O)N2CCOCC2)cc1C(=O)OCC(=O)c1c(N)n(C)c(=O)n(C)c1=O,"inconclusive: 6.51 µM [inhibitor, partial curve]",
NC(=O)c1sc2nnc(-c3ccccc3)c(-c3ccccc3)c2c1N,active: 14.6 µM,
O=C1Nc2ccc(F)cc2C12Nc1ccccc1-c1nnc(SCc3ccccc3Cl)nc1O2 (stereo not given),"inconclusive: 32.6 µM [inhibitor, single point]",
CCOc1ccc2oc(C(=O)Nc3ccc4c(c3)OCO4)c(C)c2c1,"inconclusive: 20.6 µM [inhibitor, partial curve, poor fit]",
CN1CCN(c2ncc3nc(-c4ccc(Cl)cc4)c(=O)n(CCC#N)c3n2)CC1,active: 16.4 µM,
N#Cc1cccnc1Oc1ccccc1,,inactive: -15.7%

SMILES,Potency,"activity change, negative = growth inhibition"
Cc1ccc(CSc2nc3c(c(N(C)C)n2)CCCC3)cc1,"inconclusive: 20.6 µM [inhibitor, single point]",
O=C(Nc1ccc(O)c2c(=O)cc(-c3ccccc3Cl)oc12)c1ccc(Cl)c(Cl)c1,,inactive: -27%
COC(=O)C(Cc1ccc(O)cc1)NC(=O)C(C)NC(=O)c1ccc(C(C)(C)C)cc1 (stereo not given),"inconclusive: 16.4 µM [inhibitor, partial curve, poor fit]",
Cn1c(SCC(=O)Nc2ccc(F)cc2)nc2c([nH]c3ccccc32)c1=O,"inconclusive: 25.9 µM [inhibitor, partial curve, poor fit] and inconclusive: 7.31 µM [inhibitor, partial curve, poor fit]",
CCOc1ccccc1Nc1cc(C)nc2ccccc12,"inconclusive: 18.4 µM [inhibitor, partial curve, poor fit]",
CCC(C)c1ccc(NC(=S)N2CCN(S(C)(=O)=O)CC2)cc1 (stereo not given),,inactive: 14.4%
CCCCOC(=O)Nc1nnc(C(C)C)s1,,inconclusive: -23.3% [inhibitor]
CCCC(=O)Oc1c(Sc2ccc(Cl)cc2)c(C)nn1-c1ccccc1,active: 20.6 µM,
COCCNC(=O)c1cc2cc(Cl)cc(Cl)c2oc1=O,,inactive: -2.76%
Cc1cc(NC(=O)CSc2cn(CCNC(=O)c3ccc(F)cc3)c3ccccc23)no1,"inconclusive: 25.9 µM [inhibitor, single point]",
Oc1ccc(N=Cc2c(O)ccc3ccccc23)cc1,"inconclusive: 23.1 µM [inhibitor, single point]",
COc1ccc(CCNC(=O)C(=O)NCC2OCCN2S(=O)(=O)c2ccc(C)cc2)cc1 (stereo not given),"inconclusive: 29.1 µM [inhibitor, single point]",
CCOc1ccc(NC(=O)c2c(OC)cccc2OC)cc1,,inactive: -3.34%
CCOc1ccc(C(C)C)cc1S(=O)(=O)Nc1cccc(-c2ccc(N3CCOCC3)nn2)c1,active: 14.6 µM,
Cc1ccc(C(C)C)c(OCC(=O)Nn2c(=O)[nH]c3ccccc3c2=O)c1,"inconclusive: 23.1 µM [inhibitor, partial curve]",
COCCCN1C(=O)C(CC(=O)NC2CCCC2)CC(C(=O)N2CCOCC2)=C1C (stereo not given),"inconclusive: 2.91 µM [inhibitor, single point]",
Cc1ccc(NC(=O)C(Cc2ccccc2)NS(=O)(=O)c2ccc3c(c2)c(=O)n(C)c(=O)n3C)cc1 (stereo not given),"inconclusive: 29.1 µM [inhibitor, single point]",
COCCN=c1scc(-c2cccs2)n1/N=C/c1ccc(O)c(O)c1O,"inconclusive: 29.1 µM [inhibitor, single point]",
CN1/C(=C\C=C2/SC(=S)N(CC(=O)O)C2=O)C(C)(C)c2ccccc21,"inconclusive: 29.1 µM [inhibitor, partial curve, poor fit]",
CC(C)CN(C(=O)COC(=O)COc1ccc2ccccc2c1)c1c(N)n(Cc2ccccc2)c(=O)[nH]c1=O,"inconclusive: 29.1 µM [inhibitor, single point]",
Cc1ccc(CN2C(=O)c3ccccc3S(=O)(=O)c3ccc(C(=O)OCC4CCCO4)cc32)cc1 (stereo not given),"inconclusive: 20.6 µM [inhibitor, single point]",
Cn1cc(C(=O)O)c(=O)c2cc(S(=O)(=O)N3CCCCC3)ccc21,"inconclusive: 20.6 µM [inhibitor, partial curve]",
